Test results as given in PubChem BioAssay AID1347073 (National Center for Advancing Translational Sciences (NCATS), 2019).
Out of some 45,000 compounds screened, about 200 (0.44%) were called active. Roughly 7% stayed inconclusive and do not appear here. The call rests on the fitted dose curve; in most records, active means well fitted activation curve with a large enough effect; inconclusive means small, poorly fitted or top-dose-only effect; inactive means no such curve, though single readings can be large or run the other way. This is one part of the list.

Assay: qHTS of TDP-43 Inhibitors: NCGC Sytravon Library Screen; further: 0% is about no effect; nearly all actives have a fitted effect of over 55% in size
Settings: yeast TDP-43 toxicity rescue, BacTiter-Glo growth, 24 h; series mostly up to 46.1 µM; growth rescue (activation): at the top concentration
How it was run: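 TDP-43-expressing yeast, pregrown in raffinose, seeded at OD600 0.02 in galactose medium with compound for 24 hr at 30 deg C. Growth read by BacTiter-Glo luminescence, so rescue of toxicity appears as activation.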

SMILES | growth rescue (activation)
COc1ccc(CN2C[C@@H](CO)O[C@@H](n3cnc4c(NCCCO)ncnc43)C2)cc1 | inactive: 4.01%
Cc1cc(C=O)c(C)n1-c1cc(C(=O)O)cc(C(=O)O)c1 | inactive: 4.52%
O=C(Nc1cccnc1)c1cccc(S(=O)(=O)Nc2ccccc2F)c1 | inactive: 13.6%
O=C(CSc1nc(-c2ccccc2)nc2ccc(F)cc12)Nc1ccc(C(=O)O)cc1 | inactive: 17.5%
Cc1ccc(S(=O)(=O)Nc2ccc3c(c2)n(C)c(=O)n3C)c(C)c1 | inactive: -3.41%
Cc1cc(NS(=O)(=O)c2ccc(NC(=O)/C=C/c3ccc(C)o3)cc2)nc(C)n1 | inactive: -8.46%
O=C(c1ccc(Br)cc1)c1cc2ccc(O)cc2oc1=O | inactive: -1.14%
O=C(c1ccco1)N1CCN(C(=O)c2ccccc2[N+](=O)[O-])CC1 | inactive: 11%
COc1ccc(C(=O)Nc2ccccc2C(=O)Nc2ccccn2)cc1 | inactive: 9.88%
CC1CC(=O)Nc2ccccc2N1C(=O)CN1C(=O)C(=O)N(C)C1=O (stereo not given) | inactive: -4.1%
Cc1cc(C)cc(OCC(=O)Nc2ccc3c(c2)OCO3)c1 | inactive: 9.3%
O=C(Nc1nnc(-c2ccccc2)s1)c1ccc(F)cc1 | inactive: 5.22%
CC1Cc2ccccc2N1S(=O)(=O)c1cccc(C(=O)N2CCN(c3ncccn3)CC2)c1 (stereo not given) | inactive: 8.57%
O=c1nc2ccccc2c2n1CC(CN1CCN(c3ccccc3F)CC1)N2 (stereo not given) | inactive: -5.95%
Cc1cccc(N(CC(=O)NC2CCCCC2)C(=O)CCC(=O)Nc2nccs2)c1 | inactive: 5.19%
CCCNC(=S)N1CCC(C(=O)c2ccc(F)cc2)CC1 | inactive: 27.6%
O=C(c1cccc(S(=O)(=O)Nc2cccc(C(F)(F)F)c2)c1)N1CCOCC1 | inactive: 35.7%
Cc1cc(OCc2nnc(SCC(=O)O)n2-c2ccccc2)ccc1Cl | inactive: 5.76%
COc1ccc(Cl)cc1S(=O)(=O)N1CCC(C(=O)NCc2ccco2)CC1 | inactive: 11.1%
CCCn1c(SCC(=O)c2c[nH]c3ccccc23)nnc1-c1ccncc1 | inactive: 18.4%
Cc1cc(N2CCN(c3ccccc3F)CC2)nc2cc(O)ccc12 | inactive: 28%
CCOC(=O)c1c(NC(=O)c2noc(C)c2[N+](=O)[O-])sc(C(C)=O)c1C | inactive: 6.57%

SMILES | growth rescue (activation)
COCCNC(=O)c1ccc2c(c1)ncn2-c1ccc(C)c(Cl)c1 | inactive: 30.3%
CC(=O)C(Cc1ccccc1)NC(=O)COC(=O)c1ccc(-n2cnnn2)cc1 (stereo not given) | inactive: 17.2%
Cc1ccc(S(=O)(=O)NCC(C)n2cncn2)cc1 (stereo not given) | inactive: 5.4%
COc1ccc(OC)c(-c2csc(-c3cccs3)n2)c1 | inactive: -4.26%
Cc1occc1-c1nnc(SCC(=O)NC(C)(C)C)n1CC(C)C | inactive: 10.9%
CCCCNC(=O)N1CCN(C(=O)C2CCCO2)CC1 (stereo not given) | inactive: -11.1%
COc1ccc(NC(=S)NC(C)c2ccncc2)cc1OC (stereo not given) | inactive: 8.9%
CCN(CC)CCN1C(=O)C2C(C(=O)Nc3cccc(SC)c3)C3C=CC2(O3)C1C(=O)NC1CCCC(C)C1C (stereo not given) | inactive: 3.07%
Cc1cc(-c2n[nH]c(=S)n2/N=C/c2cc([N+](=O)[O-])ccc2Cl)n[nH]1 | inactive: -20.2%
Cc1ccc(-c2nn(-c3ccccc3)cc2/C=C/C(=O)Nc2nccs2)cc1 | inactive: 20.6%
COc1ccc(CCCC(=O)N/N=C/c2ccc(C)cc2)cc1 | inactive: 15.7%
COc1ccc(S(=O)(=O)Nc2ccc(F)c(F)c2)cc1C(=O)N1CCOCC1 | inactive: -8.72%
CCOC(=O)C1(C)CCCCCN1C(=O)c1ccco1 (stereo not given) | inactive: 12.1%
Cc1ccc(S(=O)(=O)CC(=O)Nc2cccc(C)n2)cc1 | inactive: 8.39%
c1ccc(CCn2cnc3ccccc32)cc1 | inactive: -4.31%
CCOC(=O)N1CCN(C(=O)c2cn(CC)c3ccc(S(=O)(=O)N4CCC(C)CC4)cc3c2=O)CC1 | inactive: 2.44%
CCn1c(=O)c(C(=O)NNC(=O)c2cccc(Cl)c2)c(O)c2ccccc21 | inactive: -16.3%
Cn1c(CNC(=O)c2ccccc2F)nnc1SCc1ccc(Cl)cc1 | inactive: 11.5%
CCOc1ncccc1C(=O)Nc1cccc(-c2nnc3n2CCCCC3)c1 | inactive: 18.3%
CC1CN(c2nc3c(c(=O)n(C)c(=O)n3C)n2Cc2c(Cl)cccc2Cl)CC(C)O1 (stereo not given) | inactive: -7.35%
CC(=O)NC(CC(=O)OCc1ccc([N+](=O)[O-])cc1)c1ccccc1 (stereo not given) | inactive: -4.83%
O=C(Nc1cccc(C(=O)O)c1)/C(=C\C=C\c1ccccc1)NC(=O)c1ccccc1 | inactive: -0.766%

SMILES | growth rescue (activation)
CCCC/C=C1\CCc2c([nH]c3ccccc23)C1=O | inactive: 26.6%
Cn1c(SCC(=O)Nc2ccc(Cl)cc2F)nnc1-c1ccco1 | inactive: 45.4%
CCc1ccc2c(CN3CCN(S(=O)(=O)c4ccccc4F)CC3)cc(=O)oc2c1 | inactive: 7.52%
O=C(CS(=O)CC(=O)Nc1ccc(Cl)cc1)NCC1OCCc2ccccc21 (stereo not given) | inactive: 5.08%
C/C(=N\OC(=O)c1ccc(Br)cc1)c1ccccn1 | inactive: 25.9%
CCOC(=O)N1CCN(C(=O)c2ccccc2NC(=O)COc2ccccc2)CC1 | inactive: 2.84%
COc1ccc(/C=N/Nc2nnc(Cc3ccc(OC)c(OC)c3)c(=O)[nH]2)cc1OC | inactive: 18.4%
CC(C)(C)c1ccc(S(=O)(=O)NCc2ccc(C(=O)NCc3ccccn3)cc2)cc1 | inactive: 7.8%
CC(=O)Nc1ccc(C)c([N+](=O)[O-])c1 | inactive: -1.86%
O=C(CN(c1ccccc1F)S(=O)(=O)c1ccccc1)Nc1ccccc1C(=O)N1CCOCC1 | inactive: 12.6%
O=C(Nc1nc2ccccc2s1)c1ccc(N2CCCCC2)c([N+](=O)[O-])c1 | inactive: -7.06%
CCOC(=O)NC(Cc1c[nH]c2ccccc12)C(=O)NCCc1ccc(S(N)(=O)=O)cc1 (stereo not given) | inactive: 4.67%
O=C(Nc1ccc(S(=O)(=O)N2CCOCC2)cc1)c1ccc(S(=O)(=O)N2CCOCC2)cc1 | inactive: -6.47%
COc1ccccc1CCNC(=O)CNC(=O)Cc1cccc2ccccc12 | inactive: 9.42%
CCOC(=O)N1CCC(N(CCN(C)C)C(=S)Nc2ccccc2C)CC1 | inactive: -26%
CC(C)CN(C(=O)CN1CCN(c2ccccc2F)CC1)c1c(N)n(CC(C)C)c(=O)[nH]c1=O | inactive: -0.966%
O=C(NCCc1nc2ccccc2[nH]1)/C(=C/c1ccc2c(c1)OCO2)NC(=O)c1ccc(Cl)cc1Cl | inactive: -3.97%
CCCOc1ccc(C(=O)NC2CCSc3ccccc32)cc1 (stereo not given) | inactive: 18.4%
COc1ccc(Cn2c(C)nc3oc4cc(OC)ccc4c(=O)c3c2=O)cc1 | inactive: 1.45%
COc1cccc(CC(=O)Nc2nc(-c3ccc(F)c(F)c3)cs2)c1 | inactive: 8.27%
O=C(N/N=C/c1cc([N+](=O)[O-])ccc1O)c1cccc(NC(=O)c2cccc(Cl)c2)c1 | inactive: 7.42%
